According to PMC12820563:
The other results are listed elsewhere or left out. The list includes weakly bound sequences.

molecular target: T1, MBP-FoxP3dN (UniProt Q99JB6); experiment: PD-seq (MBP pull-down with sequencing); conditions: 20 mM Tris-HCl pH 7.5, 100 mM NaCl, 1.5 mM MgCl2, 0.4 uM protein, 0.1 uM dsDNA library, 30 min, room temperature, amylose pull-down; high values mean tight binding; double strand, one strand shown
T1 sequence: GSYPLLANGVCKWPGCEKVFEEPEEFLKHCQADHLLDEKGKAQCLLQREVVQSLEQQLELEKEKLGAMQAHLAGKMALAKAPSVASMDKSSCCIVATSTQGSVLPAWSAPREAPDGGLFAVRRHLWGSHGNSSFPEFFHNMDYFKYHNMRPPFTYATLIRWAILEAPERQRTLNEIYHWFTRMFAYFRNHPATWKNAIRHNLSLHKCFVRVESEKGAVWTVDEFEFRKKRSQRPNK

“GATGATTGTTCTCCCAGCTGATGAATTACTCTAATCGAGTAAACAAATTTTCCTAATCTTTCTGTTCAAGCGCCATCTAC” was tested. Which binding signal (RPM ratio (pull-down/input)) did it give?
The binding signal (RPM ratio (pull-down/input)) was 0.269.

Which binding signal (RPM ratio (pull-down/input)) does the source give for “GATGATTGTTCTCCCAGCTGATGAATTGGCCAATTCGAGTAAACAAATTTTCCTAATCTTTCTGTTCAAGCGCCATCTAC” here?
The binding signal (RPM ratio (pull-down/input)) was 0.309.

Which binding signal (RPM ratio (pull-down/input)) does the source give for “GATGATTGTTCTCCCAGCTGATGAATTGACCGGATCGAGTAAACAAATTTTCCTAATCTTTCTGTTCAAGCGCCATCTAC” here?
Its binding signal (RPM ratio (pull-down/input)) is 0.211.

“GATGATTGTTCTCCCAGCTGATGAATTGGCTCTATCGAGTAAACAAATTTTCCTAATCTTTCTGTTCAAGCGCCATCTAC” was tested. Which binding signal (RPM ratio (pull-down/input)) did it give?
The binding signal (RPM ratio (pull-down/input)) was 0.377.

How did the binding signal (RPM ratio (pull-down/input)) turn out when “GATGATTGTTCTCCCAGCTGATGAATTAAACTCGTCGAGTAAACAAATTTTCCTAATCTTTCTGTTCAAGCGCCATCTAC” was run?
Its binding signal (RPM ratio (pull-down/input)) is 0.319.

“GATGATTGTTCTCCCAGCTGATGAATTGGGTTAGTCGAGTAAACAAATTTTCCTAATCTTTCTGTTCAAGCGCCATCTAC” was tested. Which binding signal (RPM ratio (pull-down/input)) did it give?
The binding signal (RPM ratio (pull-down/input)) was 0.756.

How did the binding signal (RPM ratio (pull-down/input)) turn out when “GATGATTGTTCTCCCAGCTGATGAATTCTTACATTCGAGTAAACAAATTTTCCTAATCTTTCTGTTCAAGCGCCATCTAC” was run?
Its binding signal (RPM ratio (pull-down/input)) is 0.346.

“GATGATTGTTCTCCCAGCTGATGAATTGATTACATCGAGTAAACAAATTTTCCTAATCTTTCTGTTCAAGCGCCATCTAC” was tested. Which binding signal (RPM ratio (pull-down/input)) did it give?
Its binding signal (RPM ratio (pull-down/input)) is 1.48.

With “GATGATTGTTCTCCCAGCTGATGAATTCCTGTTTTCGAGTAAACAAATTTTCCTAATCTTTCTGTTCAAGCGCCATCTAC” as the sequence, how does the binding signal (RPM ratio (pull-down/input)) read?
Its binding signal (RPM ratio (pull-down/input)) is 0.929.

Which binding signal (RPM ratio (pull-down/input)) does the source give for “GATGATTGTTCTCCCAGCTGATGAATTACAGATCTCGAGTAAACAAATTTTCCTAATCTTTCTGTTCAAGCGCCATCTAC” here?
The binding signal (RPM ratio (pull-down/input)) was 0.418.

How did the binding signal (RPM ratio (pull-down/input)) turn out when “GATGATTGTTCTCCCAGCTGATGAATTGGATTTATCGAGTAAACAAATTTTCCTAATCTTTCTGTTCAAGCGCCATCTAC” was run?
Its binding signal (RPM ratio (pull-down/input)) is 1.47.

Which binding signal (RPM ratio (pull-down/input)) does the source give for “GATGATTGTTCTCCCAGCTGATGAATTAACTCATTCGAGTAAACAAATTTTCCTAATCTTTCTGTTCAAGCGCCATCTAC” here?
Its binding signal (RPM ratio (pull-down/input)) is 0.384.

With “GATGATTGTTCTCCCAGCTGATGAATTGCGCGGTTCGAGTAAACAAATTTTCCTAATCTTTCTGTTCAAGCGCCATCTAC” as the sequence, how does the binding signal (RPM ratio (pull-down/input)) read?
Its binding signal (RPM ratio (pull-down/input)) is 1.15.

How did the binding signal (RPM ratio (pull-down/input)) turn out when “GATGATTGTTCTCCCAGCTGATGAATTTCCCGACTCGAGTAAACAAATTTTCCTAATCTTTCTGTTCAAGCGCCATCTAC” was run?
Its binding signal (RPM ratio (pull-down/input)) is 0.21.

“GATGATTGTTCTCCCAGCTGATGAATTAGTCTGTTCGAGTAAACAAATTTTCCTAATCTTTCTGTTCAAGCGCCATCTAC” was tested. Which binding signal (RPM ratio (pull-down/input)) did it give?
The binding signal (RPM ratio (pull-down/input)) was 0.826.

With “GATGATTGTTCTCCCAGCTGATGAATTGCTGTGATCGAGTAAACAAATTTTCCTAATCTTTCTGTTCAAGCGCCATCTAC” as the sequence, how does the binding signal (RPM ratio (pull-down/input)) read?
The binding signal (RPM ratio (pull-down/input)) was 1.09.

“GATGATTGTTCTCCCAGCTGATGAATTCGTTATTTCGAGTAAACAAATTTTCCTAATCTTTCTGTTCAAGCGCCATCTAC” was tested. Which binding signal (RPM ratio (pull-down/input)) did it give?
The binding signal (RPM ratio (pull-down/input)) was 3.66.

For “GATGATTGTTCTCCCAGCTGATGAATTTAAGACTTCGAGTAAACAAATTTTCCTAATCTTTCTGTTCAAGCGCCATCTAC”, which binding signal (RPM ratio (pull-down/input)) is on record?
The binding signal (RPM ratio (pull-down/input)) was 0.399.

With “GATGATTGTTCTCCCAGCTGATGAATTGTGCTTCTCGAGTAAACAAATTTTCCTAATCTTTCTGTTCAAGCGCCATCTAC” as the sequence, how does the binding signal (RPM ratio (pull-down/input)) read?
The binding signal (RPM ratio (pull-down/input)) was 2.84.

Which binding signal (RPM ratio (pull-down/input)) does the source give for “GATGATTGTTCTCCCAGCTGATGAATTACCGCCTTCGAGTAAACAAATTTTCCTAATCTTTCTGTTCAAGCGCCATCTAC” here?
The binding signal (RPM ratio (pull-down/input)) was 2.97.

How did the binding signal (RPM ratio (pull-down/input)) turn out when “GATGATTGTTCTCCCAGCTGATGAATTACTAGTTTCGAGTAAACAAATTTTCCTAATCTTTCTGTTCAAGCGCCATCTAC” was run?
The binding signal (RPM ratio (pull-down/input)) was 0.416.

For “GATGATTGTTCTCCCAGCTGATGAATTGCCTCCCTCGAGTAAACAAATTTTCCTAATCTTTCTGTTCAAGCGCCATCTAC”, which binding signal (RPM ratio (pull-down/input)) is on record?
Its binding signal (RPM ratio (pull-down/input)) is 0.938.

How did the binding signal (RPM ratio (pull-down/input)) turn out when “GATGATTGTTCTCCCAGCTGATGAATTTGCGTATTCGAGTAAACAAATTTTCCTAATCTTTCTGTTCAAGCGCCATCTAC” was run?
Its binding signal (RPM ratio (pull-down/input)) is 4.16.

Which binding signal (RPM ratio (pull-down/input)) does the source give for “GATGATTGTTCTCCCAGCTGATGAATTTATCCATTCGAGTAAACAAATTTTCCTAATCTTTCTGTTCAAGCGCCATCTAC” here?
Its binding signal (RPM ratio (pull-down/input)) is 0.568.

For “GATGATTGTTCTCCCAGCTGATGAATTCAGTCAGTCGAGTAAACAAATTTTCCTAATCTTTCTGTTCAAGCGCCATCTAC”, which binding signal (RPM ratio (pull-down/input)) is on record?
The binding signal (RPM ratio (pull-down/input)) was 0.273.

How did the binding signal (RPM ratio (pull-down/input)) turn out when “GATGATTGTTCTCCCAGCTGATGAATTCTATTACTCGAGTAAACAAATTTTCCTAATCTTTCTGTTCAAGCGCCATCTAC” was run?
Its binding signal (RPM ratio (pull-down/input)) is 0.836.

Which binding signal (RPM ratio (pull-down/input)) does the source give for “GATGATTGTTCTCCCAGCTGATGAATTGCAAAAATCGAGTAAACAAATTTTCCTAATCTTTCTGTTCAAGCGCCATCTAC” here?
Its binding signal (RPM ratio (pull-down/input)) is 0.529.

How did the binding signal (RPM ratio (pull-down/input)) turn out when “GATGATTGTTCTCCCAGCTGATGAATTTTACCCCTCGAGTAAACAAATTTTCCTAATCTTTCTGTTCAAGCGCCATCTAC” was run?
The binding signal (RPM ratio (pull-down/input)) was 0.257.

Which binding signal (RPM ratio (pull-down/input)) does the source give for “GATGATTGTTCTCCCAGCTGATGAATTAACACAATCGAGTAAACAAATTTTCCTAATCTTTCTGTTCAAGCGCCATCTAC” here?
The binding signal (RPM ratio (pull-down/input)) was 0.685.

How did the binding signal (RPM ratio (pull-down/input)) turn out when “GATGATTGTTCTCCCAGCTGATGAATTTCGGGGGTCGAGTAAACAAATTTTCCTAATCTTTCTGTTCAAGCGCCATCTAC” was run?
Its binding signal (RPM ratio (pull-down/input)) is 0.472.

With “GATGATTGTTCTCCCAGCTGATGAATTGGGAGACTCGAGTAAACAAATTTTCCTAATCTTTCTGTTCAAGCGCCATCTAC” as the sequence, how does the binding signal (RPM ratio (pull-down/input)) read?
Its binding signal (RPM ratio (pull-down/input)) is 0.449.

For “GATGATTGTTCTCCCAGCTGATGAATTTGTGCTATCGAGTAAACAAATTTTCCTAATCTTTCTGTTCAAGCGCCATCTAC”, which binding signal (RPM ratio (pull-down/input)) is on record?
Its binding signal (RPM ratio (pull-down/input)) is 2.26.

With “GATGATTGTTCTCCCAGCTGATGAATTGAAATTGTCGAGTAAACAAATTTTCCTAATCTTTCTGTTCAAGCGCCATCTAC” as the sequence, how does the binding signal (RPM ratio (pull-down/input)) read?
The binding signal (RPM ratio (pull-down/input)) was 0.511.

Which binding signal (RPM ratio (pull-down/input)) does the source give for “GATGATTGTTCTCCCAGCTGATGAATTCAAGTTATCGAGTAAACAAATTTTCCTAATCTTTCTGTTCAAGCGCCATCTAC” here?
Its binding signal (RPM ratio (pull-down/input)) is 0.534.

“GATGATTGTTCTCCCAGCTGATGAATTTCCTCGCTCGAGTAAACAAATTTTCCTAATCTTTCTGTTCAAGCGCCATCTAC” was tested. Which binding signal (RPM ratio (pull-down/input)) did it give?
Its binding signal (RPM ratio (pull-down/input)) is 0.215.

For “GATGATTGTTCTCCCAGCTGATGAATTAGGCTGATCGAGTAAACAAATTTTCCTAATCTTTCTGTTCAAGCGCCATCTAC”, which binding signal (RPM ratio (pull-down/input)) is on record?
The binding signal (RPM ratio (pull-down/input)) was 0.537.

How did the binding signal (RPM ratio (pull-down/input)) turn out when “GATGATTGTTCTCCCAGCTGATGAATTGTCTTCGTCGAGTAAACAAATTTTCCTAATCTTTCTGTTCAAGCGCCATCTAC” was run?
The binding signal (RPM ratio (pull-down/input)) was 0.427.

Which binding signal (RPM ratio (pull-down/input)) does the source give for “GATGATTGTTCTCCCAGCTGATGAATTCTCGTCGTCGAGTAAACAAATTTTCCTAATCTTTCTGTTCAAGCGCCATCTAC” here?
Its binding signal (RPM ratio (pull-down/input)) is 0.364.

For “GATGATTGTTCTCCCAGCTGATGAATTATGGCAATCGAGTAAACAAATTTTCCTAATCTTTCTGTTCAAGCGCCATCTAC”, which binding signal (RPM ratio (pull-down/input)) is on record?
Its binding signal (RPM ratio (pull-down/input)) is 2.38.

“GATGATTGTTCTCCCAGCTGATGAATTGGAGGAATCGAGTAAACAAATTTTCCTAATCTTTCTGTTCAAGCGCCATCTAC” was tested. Which binding signal (RPM ratio (pull-down/input)) did it give?
Its binding signal (RPM ratio (pull-down/input)) is 0.191.
